For assay [1], the system named is hCMEC/D3 cells. The assay is described as follows: transwell cell binding and release of shuttle modules, IgG ELISA. As to conditions: for binding to the cells: 1 hour at 37 °C apically; for release to apical or basolateral compartments: over time after washing. The class given is cell-based. From the text:
We used brain endothelial cells (hCMEC/D3) to investigate cell binding and transcytosis of the shuttle modules as reported herein. Previous studies (Crepin et al., 2010; Lesley et al., 1989, WO 2012/075037, WO 2014/033074) reported that valency and affinity of TfR binding antibodies influence efficacy of binding to, transcytosis though, and release from endothelial cells of the blood brain barrier. To investigate cell binding and transcytosis in hCMEC/D3, hCMEC/D3 cells cultured on filter inserts were incubated apically with the bispecific antibody or parent antibody (without hapten-binding scFvs as controls) for 1 hour at 37° C. Cell monolayers were washed at room temperature in serum-free medium apically (400 μl) and basolaterally (1600 μl) three times for 3-5 minutes each. All wash volumes were collected to monitor efficiency of removal of the unbound ligand or antibody. Pre-warmed medium was added to the apical chamber and the filters transferred to a fresh 12 well plate (blocked overnight with PBS containing 1% BSA) containing 1600 μl pre-warmed medium. At this point, cells were lysed in 500 μl RIPA buffer (Sigma, Munich, Germany, #R0278) in order to determine specific uptakes. The remaining filters were incubated at 37° C. and samples collected at various time points to determine apical and/or basolateral release. The content of antibody in the samples was quantified using a highly sensitive IgG ELISA.

Assay [2] addresses transferrin receptor (Homo sapiens, UniProt P02786). As to conditions: see WO 2012/075037; cited from earlier work.

Chain of transferrin receptor (P02786 whole entry): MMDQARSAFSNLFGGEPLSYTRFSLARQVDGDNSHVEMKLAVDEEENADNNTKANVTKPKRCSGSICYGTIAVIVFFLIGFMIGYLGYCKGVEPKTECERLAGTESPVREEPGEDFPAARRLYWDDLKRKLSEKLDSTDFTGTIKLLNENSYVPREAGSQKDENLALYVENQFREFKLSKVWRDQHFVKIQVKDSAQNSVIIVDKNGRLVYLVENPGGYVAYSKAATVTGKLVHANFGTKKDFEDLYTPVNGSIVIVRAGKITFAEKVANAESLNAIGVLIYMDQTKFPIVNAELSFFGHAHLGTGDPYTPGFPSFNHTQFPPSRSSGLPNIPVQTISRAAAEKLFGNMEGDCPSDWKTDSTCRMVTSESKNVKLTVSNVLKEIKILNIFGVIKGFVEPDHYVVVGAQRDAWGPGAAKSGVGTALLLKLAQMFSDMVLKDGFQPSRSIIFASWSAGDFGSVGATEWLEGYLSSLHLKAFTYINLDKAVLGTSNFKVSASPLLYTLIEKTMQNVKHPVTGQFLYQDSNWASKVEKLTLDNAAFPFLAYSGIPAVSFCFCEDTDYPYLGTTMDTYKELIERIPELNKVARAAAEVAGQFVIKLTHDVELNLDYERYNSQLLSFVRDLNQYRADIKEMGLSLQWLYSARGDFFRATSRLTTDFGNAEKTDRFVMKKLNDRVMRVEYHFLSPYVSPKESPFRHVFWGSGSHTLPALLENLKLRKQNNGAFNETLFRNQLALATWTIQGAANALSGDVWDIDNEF

B1: TfR2: antibody binding the transferrin receptor with reduced affinity (WO 2012/075037); LC SEQ ID NO: 137 (antibody)
heavy: EVQLQQSGPELVKPGASVKMSCKASGYTFTSYVMHWVKQKPGQGLEWIGYVNPYNDDTKYNEKFRGKATLTSDKSSSTAYMELSSLTSEDSAVYYCARSYYYYSMDNWGQGTSVTVSS[letters of human IgG1 constant region omitted]GGGGSGGGGSQVQLVESGGGLVKPGGSLRLSCAASGFTFSDYAMSWIRQAPGKCLEWVSSINIGATYIYYADSVKGRFTISRDNAKNSLYLQMNSLRAEDTAVYYCARPGSPYEYDKAYYSMAYWGQGTTVTVSSGGGGSGGGGSGGGGSDIQMTQSPSSLSASVGDRVTITCRASQDIKNYLNWYQQKPGKAPKLLIYYSSTLLSGVPSRFSGSGSGTDFTLTISSLQPEDFATYYCQQSITLPPTFGCGTKVEIK
light: QIVLTQSPAIMSASPGEKVTVTCSASSSIRYMHWYQQKPGTSPKRWIYDTSELASGVPARFSGSGSGTSYSLTINSMEAEDAATYYCHQRSSYPFTFGGGTKLEIKRTVAAPSVFIFPPSDEQLKSGTASVVCLLNNFYPREAKVQWKVDNALQSGNSQESVTEQDSKDSTYSLSSTLTLSKADYEKHKVYACEVTHQGLSSPVTKSFNRGEC
modifications: HC anti-TfR2 antibody conjugated to scFv anti- digoxigenin antibody fragment; LC anti-TfR2 antibody
As for B1, in assay [1], the “binding to the cells” value was “efficiently bound to the cells” and the “release to apical or basolateral compartments” value (“release” below) is reported as “subsequently released over time to apical or basolateral compartments”. Further, the “affinity to the transferrin receptor” value in assay [2] was “reduced affinity”.

B2: TfR2-Bio: bispecific shuttle module: anti-TfR2 antibody with scFv anti-biotin; SEQ ID NO: 137 and 139 (protein)
light: B1 light
heavy: MGWSCIILFLVATATGVHSEVQLQQSGPELVKPGASVKMSCKASGYTFTSYVMHWVKQKPGQGLEWIGYVNPYNDDTKYNEKFRGKATLTSDKSSSTAYMELSSLTSEDSAVYYCARSYYYYSMDNWGQGTSVTVSS[letters of human IgG1 constant region omitted]GGGGSGGGGSDIQMTQSPSSLSASVGDRVTITCRASGNIHNYLSWYQQKPGKVPKLLIYSAKTLADGVPSRFSGSGSGTDFTLTISSLQPEDVATYYCQHFWSSIYTFGCGTKLEIKRGGGGSGGGGSGGGGSGGGGSQVQLVQSGAEVKKPGSSVKVSCKSSGFNNKDTFFQWVRQAPGQCLEWMGRIDPANGFTKYAQKFQGRVTITADTSTSTAYMELSSLRSEDTAVYYCARWDTYGAAWFAYWGQGTLVTVSS
modifications: LC anti-TfR2 antibody; HC anti-TfR2 antibody conjugated to scFv anti- biotin antibody fragment
For B2, in assay [1], the “binding to the cells” value is “efficiently bound to the cells” and the “release” value is “released to apical or basolateral compartments to the same degree as the parent antibody”.

B3: TfR2-Dig: bispecific shuttle module: anti-TfR2 antibody with scFv anti-digoxigenin; SEQ ID NO: 137 and 138 (protein)
light: B1 light
heavy: B1 heavy
modifications: LC anti-TfR2 antibody; HC anti-TfR2 antibody conjugated to scFv anti- digoxigenin antibody fragment
Consider B3, for which, in assay [1], the “binding to the cells” value is on record as “efficiently bound to the cells” and the “release” value was “released to apical or basolateral compartments to the same degree as the parent antibody”.

The record behind these values is patent US10251952B2, “Humanized anti-tau(pS422) antibody brain shuttles and use thereof” (Hoffmann-La Roche Inc., priority 2014, dated 2019).
